± gives the standard deviation. Only a part is listed here, and it is no random draw.
These sequences were tested on MIWI (PIWIL1) piRISC loaded with piRNA #1 (30 nt) (assay: pre-steady-state target cleavage rate (min^-1); MIWI and MILI are mouse PIWI proteins and EfPiwi is from a freshwater sponge; tags in brackets are library labels; higher = faster piRNA-guided slicing of the target). Settings: guide: piRNA #1 5'p-UGAGGUAGUAGGUUGUAUAGUAUCCAGAGG; auxiliary factor: 500 nM mouse GTSF1.
Procedure, shortened: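 Sequencing of uncleaved targets, normalised to depth and to weakly complementary targets, was the readout of this Cleave-'n-Seq assay. A transcribed, DNA-blocked target RNA library (0.1 nM) was mixed with 1 nM active affinity-purified piRISC carrying one synthetic guide, with or without 500 nM GTSF1 partner protein, in HEPES–potassium acetate buffer at 33 °C for 0–8 or 0–960 min. Three trials were pooled, k3 was capped at 0.0001 min^-1, and a burst-and-steady-state fit gave the pre-steady-state cleavage rate.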

Row | Sequence | pre-steady-state target cleavage rate
1 | GGAGACCUAUCUAUACAACCUUCUAGCUCA | 0.0565 ± 0.01
2 | GGAGACGAUACUAUACAACCUACUUGCUCA | 0.464 ± 0.11
3 | GGAGACCUAACUAUACAAGCUACUACCUCA | 0.546 ± 0.042
4 | GGAGACGAUACUAUAGCAACCUACUACCUCA | 0.84 ± 0.093
5 | GGAGACCAUACUAUACAACGUACUACGUCA | 0.474 ± 0.06
6 | GGAGACCUAUCUAUUCAACGUACUACCUCA | 0.00683 ± 0.0026
7 | GGAGACCAUACUAUUCAACCUACAACCUCA | 0.739 ± 0.077
8 | GGAGACCUAUGUCUACAACCUACUACCUCA | 0.0169 ± 0.0072
9 | CCUCUGGAUACUAUACAACGCUACUACCUCA | 0.00785 ± 0.0037
10 | GCUCUGGAUACUAUACAACCAAGUACCUCA | 0.0446 ± 0.007
11 | GGACCGGAUACUAUACAACCUACUACCUCA | 1.77 ± 0.11
12 | GGAGACCAUACUAAAGAACCUACUACCUCA | 0.246 ± 0.026
13 | GGUCUGGAUACUAUACAACCUACAUACCUCA | 0.935 ± 0.071
14 | CCUCUCGGAUACUAUACAACCUACUACCUCA | 2.06 ± 0.15
15 | GGAGACCUAUCUAUACAACCUACUACCUCA [g2:g20:cont:t1A] | 1.12 ± 0.11
16 | GGAGACCUUUCUAUACAACCUACUACGUCA | 0.533 ± 0.04
17 | GGAGACCUAUGAUAUGUUGGUACUACCCUCA | < 0.0001
18 | GGAGACCUUACUAUACAACCUAAUACCUCA | 0.814 ± 0.073
19 | GCUCUGGUUACUAUACAACCUACUAGCUCA | 0.565 ± 0.055
20 | GGAGUGGAUACUAUACAACCAACUACCACA | 0.0934 ± 0.0094

Row | Sequence | pre-steady-state target cleavage rate
21 | GGACAGGAUACUAUACAUCCUACUACCUCA | 1.55 ± 0.091
22 | GGAGACCUAUGAUUACAACCUCCUACCUCA | 0.00268 ± 0.0026
23 | CCUCUGGACACUAUACAACCUACUACCUCA | 1.75 ± 0.091
24 | GGAGAGGAUACUAUACAUCCUUCUACCUCA | 0.21 ± 0.019
25 | GCUCUGGAUACUAUACUACCAACUACCUCA | 0.0275 ± 0.0065
26 | GGAGACCUAUGAUAUGUUCCUAGUACGUCA | < 0.0001
27 | GGAGAGGAUACUAUACAACGUUCUACCUCA | 0.0791 ± 0.0075
28 | GGAGACCUAUGAAUAAACCUACUACCUCA | < 0.0001
29 | GGUCUGGAUACUAUACAAGCUACUAGCUCA | 0.13 ± 0.032
30 | GGACUGGAUACUAUACAACCUACUACCAGA | 0.0491 ± 0.012
31 | GGACUCGAUACUAUACAUCCUACUACCUCA | 1.54 ± 0.1
32 | GCUCUGGAUACUAUACAACCUAGUAGCUCA | 0.317 ± 0.072
33 | GGAGACCUUACUAUAGAACCAACUACCUCA | 0.0271 ± 0.003
34 | GGAGACCAUACUAUACAACCAACAACCUCA | 0.0223 ± 0.0076
35 | GGAGACGAUACUAGUACAACCUACUACCUCA | 1.28 ± 0.085
36 | GGAGAGGAUACUAUACUACCUACUACCUCA | 1.06 ± 0.052
37 | GGAGACCAUACCAUACAACCUACUACCUCA | 1.14 ± 0.11
38 | GGUCUGGAUACUAUACAACCUACUACCUCG [g2:g28:cont:t1G] | 1.12 ± 0.083
39 | GGAGUGGAUACUAUACAACGUACUACCUCA | 0.589 ± 0.031
40 | GGAGAGGACUACUAUACAACCUACUACCUCA | 1.58 ± 0.11
